Source: the supplement of paper PMC4604168 (melanoma cell lines)
Some of the results follow. Many values rest on one well or one pass, so single values are uncertain.

tested on: SkMel28; experiment: cell count relative to DMSO control; melanoma cells; higher = more viable cells; conditions: library dose: standard library concentration; 72 h
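Note: cells treated in 1,536-well plates, then fixed and DAPI-stained, with nuclei counted from automated high-throughput microscope images.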

Structure (SMILES) | cell count [%]
N.N.[Cl][Pt][Cl] [cisplatin] + CS(=O)(=O)CCNCc1ccc(-c2ccc3ncnc(Nc4ccc(OCc5cccc(F)c5)c(Cl)c4)c3c2)o1 [lapatinib] (first compound 8 µM, partner dose 4 µM) | 151
C[C@]12O[C@H](C[C@]1(O)CO)n1c3ccccc3c3c4c(c5c6ccccc6n2c5c31)CNC4=O [Lestaurtinib] + C[C@]1(c2nc3c(C(N)=O)cccc3[nH]2)CCCN1 [Veliparib] (first compound 0.02 µM, partner dose 7 µM) | 84.3
Cn1cc(C2=C(c3cn(C4CCN(Cc5ccccn5)CC4)c4ccccc34)C(=O)NC2=O)c2ccccc21 [Enzastaurin] + CN1CCN(c2ccc3nc(-c4c(N)c5c(F)cccc5[nH]c4=O)[nH]c3c2)CC1 [Dovitinib] (first compound 4 µM, partner dose 0.5 µM) | 39.6
Cn1cc(C2=C(c3cn(C4CCN(Cc5ccccn5)CC4)c4ccccc34)C(=O)NC2=O)c2ccccc21 [Enzastaurin] + C[C@@H](Oc1cc(-c2cnn(C3CCNCC3)c2)cnc1N)c1c(Cl)ccc(F)c1Cl [Crizotinib] (first compound 4 µM, partner dose 1 µM) | 53.6
C[As](C)SC[C@H](NC(=O)CC[C@H](N)C(=O)O)C(=O)NCC(=O)O [Darinaparsin] + Cc1cc(SCc2sc(-c3ccc(C(F)(F)F)c(F)c3)nc2C)ccc1OCC(=O)O [GW0742] (first compound 2 µM, partner dose 10 µM) | 117
